Out of some 48,000 compounds screened, about 120 (0.25%) were called active. Roughly 4% stayed inconclusive and do not appear here. Calls follow the shape of the dose curve; as a rule, active = well fitted activation curve with a large enough effect; inconclusive = small, poorly fitted or top-dose-only effect, or another doubt; inactive = no such curve, though single readings can be large or run the other way. This is one part of the list.
assay: Primary qHTS for Identification of Small Molecule Activators of Huntingtin-Antisense Promoter Activity; details: HEK293 HTT-AS promoter firefly luciferase reporter, 24 h; series mostly up to 57.5 µM; activity change, positive = activation: at the top concentration; also: nearly all actives have a fitted effect of over 55% in size
Summary of the method: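 HEK293 Fluc reporter, 2,500 cells/well, 24 h pre-culture; cpds up to 57.5 uM final, 24 h 37 degrees C; Dual-Glo, 10 min RT; normalized vehicle = 0%, zero RLU = -100%.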

Activity change, positive = activation, inactive:
COc1cccc(C(=O)NCc2ccc3c(c2)CCN3C(=O)c2ccncc2)c1 7.5%
COc1ccccc1-c1nc(SCC(=O)c2ccccc2)n[nH]1 14%
COc1ccc(-c2[nH]c(-c3cccc(OC)c3)nc2SCC(=O)Nc2ccc3c(c2)OCO3)cc1 -18.8%
COc1ccc(CNc2nc(SCc3ccc(Cl)cc3)nc3ccccc23)cc1 -2.25%
CCN(c1cccc(C)c1)S(=O)(=O)c1ccc(N2CCCCS2(=O)=O)cc1 -28.8%
COc1ccc(NC(=O)c2ccc(-c3nc(CSc4ccc(C)cc4)c(C)o3)cc2)cc1Cl -7.99%
Cc1ccc(NC(=O)c2cc(S(=O)(=O)N(C)C3CCCCC3)ccc2F)cc1C -24.1%
COc1ccccc1C(=O)Oc1c(Sc2ccccc2)c(C)nn1C(C)(C)C 0%
CCCCCN1C(C(=O)c2ccccc2)=C(NC(=O)c2ccc(OC)cc2)c2ccccc2S1(=O)=O -16.5%
CCc1ccc(C(=O)c2cn(CC(=O)Nc3cccc(OC)c3)c3ccc(OC)cc3c2=O)cc1 -20.5%
COc1ccccc1N1CCN(c2ncnc3c2cnn3-c2cc(Cl)ccc2C)CC1 -22.9%
COc1ccc(OCC(=O)NCc2ccc3c(c2)CCN3C(=O)c2ccccc2)cc1 -21.5%
O=C(c1cc2ccccc2oc1=O)N1CCN(c2ccc(Cl)cc2)CC1 -17.8%
O=C(NCCc1ccccc1)c1cnc2sc(N3CCCCCC3)nn2c1=O 6.75%
Cc1cc2oc(C(=O)Nc3ccc(S(N)(=O)=O)cc3)cc(=O)c2cc1C -9.57%
Cc1ccc(C(=O)N2c3ccc(C)cc3C(C)(c3ccccc3)CC2(C)C)cc1 (stereo not drawn) -39.3%
C[C@]12CC[C@H](O)CC1=CCC1C2CC[C@]2(C)C(n3cnc4ccccc43)=CCC12 (stereo partly drawn) -5.29%
CCc1cccc(NC(=O)CN2C(=O)COc3ccc(S(=O)(=O)Nc4ccccc4)cc32)c1 -34.9%
Cc1ccc(CSc2nc3ccc(NC(=O)COc4ccccc4)cc3s2)cc1 -8.86%
CCOC(=O)c1ccc(N2C(=O)c3[nH]nc(-c4ccc(C)cc4)c3C2c2cccc(F)c2)cc1 (stereo not drawn) -58.8%
CC(NC(=O)c1ccc2c(c1)CCN2S(C)(=O)=O)c1ccccc1 (stereo not drawn) -13.3%
Cc1c(Cl)cccc1NC(=O)c1cccc(NC(=O)N2CCSc3ncccc32)c1 -16.8%
Cc1ccc(CNC(=O)c2ccc3c(c2)nc(C)n3-c2cccc(F)c2)cc1 -5.7%
CCOc1ccc(NC(=O)CSC2=Nc3ccccc3C3=NC(CCC(=O)NCc4ccccc4)C(=O)N23)cc1 (stereo not drawn) 0%
Cc1cc(C(F)(F)F)n2nc(-c3ccc(Br)cc3)cc2n1 -1.87%
CCCCOc1ccc(-c2nn(-c3ccccc3)cc2C2NC(=O)NC(C)=C2C(=O)OCC)cc1 (stereo not drawn) -13.1%
Cc1cccc(NC(=O)CSc2cn(CC(=O)N3CCCCCC3)c3ccccc23)c1 -16.6%
Cc1cc(OC(C)C(=O)Nc2c(C(=O)c3ccc(F)cc3)oc3ccccc23)ccc1Cl (stereo not drawn) -6.02%
CCc1ccc(Sc2cc(C(=O)NCc3ccccc3OC)c3ccccc3n2)cc1 -35.7%
COC(=O)c1ccc(OCC2c3cc(OC)c(OC)cc3CCN2C(=O)Cc2ccc(OC)cc2)cc1 (stereo not drawn) -23.3%
CCOc1ccc(N2CC(NC(=O)C(=O)c3c[nH]c4ccccc34)CC2=O)cc1 (stereo not drawn) -22.4%
CCn1c(=O)cc(SCC(=O)NCc2ccc(F)cc2Cl)c2ccccc21 -10.1%
CCc1ccc(Sc2cc(C(=O)NCc3cccc(OC)c3)c3ccccc3n2)cc1 -44.3%
Cn1nc(C(=O)NCc2ccc(Cl)cc2)c2c1-c1ccccc1S(=O)(=O)C2 -29.8%
Cc1ccc(OCc2nc(-c3ccc(C(=O)N4CCN(c5ccccc5F)CC4)cc3)oc2C)cc1 3.45%
O=C1OC(C(=O)Nc2cccc(Br)c2)Cc2ccccc21 (stereo not drawn) 5.95%
COc1ccc(CNC(=O)Cn2c(SCC(=O)Nc3ccc(OC)cc3)nc3ccccc32)cc1 5.39%
Cc1cccc(-n2ncc(C(=O)N3CCN(c4ccc(Cl)cc4)CC3)c2C2CCN(C(=O)OC(C)(C)C)CC2)c1 -6.74%
CCc1ccc2nc(N(CCN(CC)CC)C(=O)c3ccco3)sc2c1 17.8%
Cc1ccc(NC(=O)c2ccc(-c3cccc(Cl)c3C)o2)cc1 11%
COc1ccc(OC)c(CNC(=O)c2cc3c(-c4ccc(OC)c(OC)c4)nn(C)c3s2)c1 1.78%
CN(C)S(=O)(=O)N(CC(=O)NCCSCc1ccccc1)c1ccccc1 -7.67%
CCCCCn1c(=O)[nH]c2cc(C(=O)Nc3cc(C)cc(C)c3)ccc2c1=O -6.55%
Cc1cccc(N2C(=O)N(CC(=O)C(C)(C)C)c3ccccc3S2(=O)=O)c1C -34.2%
COc1ccc(Cl)cc1NC(=O)c1cc(S(=O)(=O)NC2CCCCCC2)ccc1F -25.7%
Cc1ccc(C)c(NC(=O)CN2CCCN(Cc3cccc(Cl)c3)S2(=O)=O)c1 -21.3%
CCc1nnc(SCc2cc(C)ccc2C)c2cc3sc(C)cc3n12 -21.7%
COc1ccc(NC(=O)C(C)n2nc(-c3ccc(C)c(C)c3)ccc2=O)cc1OC (stereo not drawn) -19.6%
CCOC(=O)c1c(C)[nH]c(C)c1S(=O)(=O)N1CCC(C(=O)N2CCN(c3ccccc3F)CC2)CC1 0%
COc1cccc(NC(=O)CSC2=Nc3ccccc3C3=NC(CC(=O)NC4CCCCC4)C(=O)N23)c1 (stereo not drawn) -9.7%
Cc1ccc(-n2c(SCc3cccc(F)c3)nc3[nH]ncc3c2=O)cc1C -29.5%
COc1ccc(C2CC(=O)c3cc(-c4nc(-c5ccc(Cl)cc5)c(C)s4)c(=O)[nH]c3C2)cc1 (stereo not drawn) -6.4%
Cc1ccc2c(c1)-c1cc(C)nn1C(c1cc(Br)ccc1O)N2 (stereo not drawn) 11% [at 11.5 µM, percent change from vehicle, -100% = no light]
COc1cc(OC)c(OC)cc1/C=C/c1nc2cc3ccccc3cc2c(=O)n1-c1ccc(F)cc1F -22.8%
CCNC(=O)[C@H]1O[C@@H](n2cnc3c(N)nc(NCCc4ccc(CCC(=O)O)cc4)nc32)[C@H](O)[C@H]1O -7.82%
O=S(=O)(Nc1nc2n(n1)C(c1ccc(F)cc1)C=C(c1ccccc1)N2)c1ccccc1 (stereo not drawn) -13.1%
COC(=O)c1ccc2c(=O)n(CCCCCC(=O)NCc3ccc(Cl)cc3)c(=O)[nH]c2c1 -21.9%
Cc1cc(C)c2c(=O)cc(C(=O)Nc3ccccc3C(F)(F)F)oc2c1 9.28% [at 11.5 µM, percent change from vehicle, -100% = no light]
